± gives the standard error. Variants at the floor of the assay are shown more often than the library holds them.
B1: glmS ribozyme (parent)
chain: AUAAAAGCGCCAGAACUACAGAAAUGUAGUUGACGAGGAGGAGGUUUAUCGAAUUUUCGGCGGAUGCCUCCAAA

Experiments:
Conditions in all cases: with glucosamine-6-phosphate
[1] = variants of: B1; assay: self-cleavage kobs at 40 uM GlcN6P; higher = faster cleavage; RNA array
Outline: (§1)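 Barcoded ribozyme variants on sequenced MiSeq chips were transcribed in situ by E. coli RNA polymerase and followed at 37 °C through a hybridised Cy3 probe. Glucosamine-6-phosphate at 40 μM to 10 mM in HEPES/KCl/Mg(OAc)2 buffer was flowed in, and tiles were imaged over ~14 h. Signals were normalised to baseline and to non-cleaving reference variants, and per-tile medians were fit to one- or two-exponential decays to give kobs. Weighted Michaelis–Menten fits across concentrations gave kcat and KM.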

[2] = variants of: B1; assay: self-cleavage kobs at 640 uM GlcN6P; higher = faster cleavage; RNA array
Outline: as §1

[3] = variants of: B1; assay: self-cleavage kobs at 160 uM GlcN6P; higher = faster cleavage; RNA array
Outline: as §1

[4] = variants of: B1; assay: self-cleavage kobs at 10000 uM GlcN6P; higher = faster cleavage; RNA array
Outline: as §1

[5] = variants of: B1; assay: self-cleavage kobs at 2500 uM GlcN6P; higher = faster cleavage; RNA array
Outline: as §1

Variant	self-cleavage kobs at 40 uM GlcN6P [1]	self-cleavage kobs at 640 uM GlcN6P [2]	self-cleavage kobs at 160 uM GlcN6P [3]	self-cleavage kobs at 10000 uM GlcN6P [4]	self-cleavage kobs at 2500 uM GlcN6P [5]
AUAAAAGCGCCAGAACUACAGAAAUGUAUUUGACGAGGAGGAUGUUUAUCGAAUUUUCGGCGGAUGCCUCCAAA [G29U G43U]	< 1e-05 s⁻¹	< 1e-05 s⁻¹	< 1e-05 s⁻¹		
AUAAAAGCGCCAGAACUACAGAAAUGUAUUUGACGAGGAGGAGGUUUAUCGAAGUUUUGGCGGAUGCCGCCAAA [G29U U54G C58U U69G]	6.42e-05 ± 2.3e-05 s⁻¹				
AUAAAAGCGCCAGAACUACAGAAAUGUAUUUGACGAGGAGGAGUUUUAUCGAAUUUUCGGCGGAUGCCUCCAAA [G29U G44U]	< 1e-05 s⁻¹				
AUAAAAGCGCCAGAACUACAGAAAUGUAUUUGACGAGGAGGAGGUUUAUCGAAUUUUCGGCGGAUACCUCCAAA [G29U G66A]	8.79e-05 ± 1.5e-05 s⁻¹				
AUAAAAGCGCCAGAACUACAGAAAUGUAUUUGACGAGGAAGAGGUUUAGCGAAGUUUCGGCGGAUGCCUCCAAA [G29U G40A U49G U54G]	< 1e-05 s⁻¹			< 1e-05 s⁻¹	
AUAAAAGCGCCAGAACUACAGAAAUGUAUUUGACGAGGAGAAGGGUUAUCGAGUUUUCGGCGGAUGCCUCCAAA [G29U G41A U45G A53G]	< 1e-05 s⁻¹				
AUAAAAGCGCCAGAACUACAGAAAUGUAUUUGACGAGGAGGAGGUUUAUCGAAUUAUCGGCGGAUGCCUCCAAA [G29U U56A]	4.68e-05 ± 1.4e-05 s⁻¹	0.000211 ± 7e-05 s⁻¹	9.32e-05 ± 2e-05 s⁻¹	0.00285 ± 0.00045 s⁻¹	
AUAAAAGCGCCAGAACUACAGAAAUGUAUUUGACGAGGAGGAUGUUUAUCGAAUUUUCGGCGGAUGCCUCUAAA [G29U G43U C71U]	< 1e-05 s⁻¹				
AUAAAAGCGCCAGAACUACAGAAAUGUAUUUGACUAGGAGGCGGUUUAUCGAAUUUUCGGCGGAUGCCUCCAAA [G29U G35U A42C]	< 1e-05 s⁻¹				< 1e-05 s⁻¹
AUAAAAGCGCCAGAACUACAGAAAUGUAUUUAACGAGGAGGAGGUUUAUCGAAUUUUCGGCGGAUGCCUCCAAA [G29U G32A]	3.81e-05 ± 1.5e-05 s⁻¹	0.000328 ± 6.3e-05 s⁻¹	0.000105 ± 2.4e-05 s⁻¹	0.00128 ± 0.00016 s⁻¹	0.000738 ± 0.00012 s⁻¹
AUAAAAGCGCCAGAACUACAGAAAUGUAUUUGACUAGGAGGAGGUUUAUCGAAUUUUCGGCGGAUGCCUCCAAA [G29U G35U]	< 1e-05 s⁻¹		< 1e-05 s⁻¹	< 1e-05 s⁻¹	< 1e-05 s⁻¹
AUAAAAGCGCCAGAACUACAGAAAUGUAUUUGACGAGGAGGAAGUUUAUCGAAUUUUCGGCGGAUACCUCCAAA [G29U G43A G66A]	< 1e-05 s⁻¹			< 1e-05 s⁻¹	
AUAAAAGCGCCAGAACUACAGAAAUGUAUUCGACGCGGAGGAGGUUUAUCGAAUUUUCGGCGGAUGCCUCCAAA [G29U U31C A36C]	< 1e-05 s⁻¹				< 1e-05 s⁻¹
AUAAAAGCGCCAGAACUACAGAAAUGUAUUUGACGAGGAGGAGGUUUAUCGAAUUUCCGGCGGAUGCCUCCAAA [G29U U57C]	< 1e-05 s⁻¹				
AUAAAAGCGCCAGAACUACAGAAAUGUAUUUGACGAGGAAGAGUUUUAUCGAAUUUUCGGCGGAUGCAUCCAAA [G29U G40A G44U C68A]	< 1e-05 s⁻¹			< 1e-05 s⁻¹	
AUAAAAGCGCCAGAACUACAGAAAUGUAUUUGACGAGGAGGAGGUUUAUCGAAUUAUCGGCCGAUGCCUCCAAA [G29U U56A G62C]	< 1e-05 s⁻¹			< 1e-05 s⁻¹	
AUAAAAGCGCCAGAACUACAGAAAUGUAUUUGACGAGGACGAGGUUUAUCGGAUUUUCGGCGGAUGCCUCCAAA [G29U G40C A52G]	< 1e-05 s⁻¹				
AUAAAAGCGCCAGAACUACAGAAAUGUAUUUGACGAGGAGGAGGUUUAUGGAAUUUUCGUCGGAUGACUCCAAA [G29U C50G G60U C67A]	9.35e-05 ± 1.9e-05 s⁻¹			0.000133 ± 3e-05 s⁻¹	
